The source of these data is article PMC10668032.

The other results are listed elsewhere or left out. At the low end of the ranking the order means little.

The target in this assay is SIX1-Q177R homeodomain (UniProt Q15475). The assay is described as follows: universal protein binding microarray. As to conditions: Universal all-10-mer PBM (8x60K, AMADID 030236), 300 nM GST-tagged protein, Alexa Fluor 488 anti-GST; buffer, salt, pH and temperature not stated; high values mean tight binding; most listed sequences are background and not binding sites; double strand, one strand shown.
Take GTCAGGCA: the binding signal is -0.0481 E-score.

As to CGTTACCA, the binding signal came out at 0.0433 E-score.

In the case of TCTACCAA, the binding signal is -0.104 E-score.

As for TACTGTAA, the binding signal came to 0.089 E-score.

For GCAAAGGC, the binding signal was -0.186 E-score.

As to AAGTCTGC, the binding signal was -0.0996 E-score.

On to TCGGCCGA, for which the binding signal is -0.103 E-score.

Regarding GAAGGAAA, the binding signal was -0.202 E-score.

With CAGCTTCG, the binding signal is -0.132 E-score.

With GCCGCTTA, the binding signal is -0.241 E-score.

Regarding AATCCTTA, the binding signal is 0.0413 E-score.

Take CAAACTGA: the binding signal was -0.0672 E-score.

Consider TACCTTAA, for which the binding signal was -0.0269 E-score.

For CGCAAGGA, the binding signal was -0.067 E-score.

Consider CGGCACAC, for which the binding signal came to 0.208 E-score.

For ACCTGAGC, the binding signal is 0.0704 E-score.

For the sequence TCTGCAGA, the binding signal is -0.183 E-score.

Regarding ATGCGCCA, the binding signal was -0.0656 E-score.

For GGAGGAGA, the binding signal amounted to 0.00223 E-score.

GCGGGAGC: the binding signal was -0.146 E-score.

As for ATGGCCAA, the binding signal is -0.264 E-score.

For the sequence CCCTACAG, the binding signal was -0.12 E-score.

ATGTCGCC: the binding signal was -0.0794 E-score.

Consider GACGGTGA, for which the binding signal is -0.132 E-score.

For AATATTAC, the binding signal was found to be 0.00845 E-score.

ACGATAGA: the binding signal was 0.00649 E-score.

As to CGGATAGC, the binding signal is -0.0537 E-score.

On to CCGTATTC, for which the binding signal was 0.00109 E-score.

Turning to AAAAGCAT, the binding signal is -0.27 E-score.

In the case of CATGACGG, the binding signal is -0.143 E-score.

For CCCAGGAC, the binding signal came out at 0.113 E-score.

As to ACTTGGTA, the binding signal was determined as 0.0835 E-score.

For the sequence CATTTCGA, the binding signal was -0.225 E-score.

On to CTCCGAAC, for which the binding signal was -0.00335 E-score.

In the case of CGCAAATA, the binding signal was -0.156 E-score.

Regarding ACCATCAC, the binding signal amounted to 0.123 E-score.

On to GCACTGAA, for which the binding signal was -0.208 E-score.

Regarding AAGAGGCG, the binding signal was -0.193 E-score.

Take GAAAGGAC: the binding signal was -0.0257 E-score.

In the case of CCTAAGGC, the binding signal is -0.0414 E-score.

With GAATACTA, the binding signal was -0.236 E-score.

For the sequence AAACGTAT, the binding signal was -0.224 E-score.

Turning to CGTCCTGA, the binding signal was -0.151 E-score.

Turning to CTATCTAC, the binding signal was determined as 0.0414 E-score.

As for ATGTTAAT, the binding signal is -0.223 E-score.

As to CCCGAGGA, the binding signal is 0.129 E-score.

Consider ATCAACAC, for which the binding signal stood at 0.394 E-score.

On to CATATAGG, for which the binding signal stood at 0.0431 E-score.

In the case of AAACATGG, the binding signal is -0.129 E-score.

Regarding CTCGCCCC, the binding signal turned out to be 0.173 E-score.

Regarding CAACCATA, the binding signal is -0.168 E-score.

As for ATGAGGTA, the binding signal was -0.133 E-score.

Take AGCATGGA: the binding signal is -0.172 E-score.

Consider GCGGCAAA, for which the binding signal was -0.113 E-score.

For AAAACCGA, the binding signal is -0.0187 E-score.

Consider GTGTCTAA, for which the binding signal was 0.394 E-score.

Regarding AGAGCCTC, the binding signal is -0.287 E-score.

In the case of TGAGGCCA, the binding signal was -0.218 E-score.

TCACTTCA: the binding signal was -0.297 E-score.

In the case of CCGTATAG, the binding signal was -0.0761 E-score.

As to GTGAGGGA, the binding signal came to 0.0131 E-score.

Take AATTAAAG: the binding signal is -0.214 E-score.

Turning to GGCCCAAC, the binding signal is -0.128 E-score.

On to ATCGGTCA, for which the binding signal is -0.137 E-score.

For the sequence CAGGGGCA, the binding signal was -0.118 E-score.

In the case of GCCTGGCC, the binding signal was -0.318 E-score.

Take TATATGGA: the binding signal was -0.0149 E-score.

AAATCCCA: the binding signal is -0.164 E-score.

As for ACGCGGCT, the binding signal is -0.12 E-score.

With GAGATTCC, the binding signal is -0.191 E-score.

Consider ACCCATTG, for which the binding signal stood at 0.0294 E-score.

On to ATTGTTAC, for which the binding signal is -0.0783 E-score.

With CGCGATCC, the binding signal was 0.102 E-score.

In the case of GCCATCTA, the binding signal is -0.28 E-score.

Take CTTGGCTC: the binding signal is -0.157 E-score.

For the sequence TACTACCA, the binding signal was -0.0414 E-score.

As to AACGATAC, the binding signal is 0.142 E-score.

Take CCTAGCTA: the binding signal came to 0.0442 E-score.

With AGCCTAAT, the binding signal is -0.06 E-score.

Take CACTGACC: the binding signal was 0.0609 E-score.

Take AAGTCTTA: the binding signal is -0.118 E-score.

Regarding AGAGGTAG, the binding signal is -0.0928 E-score.

For the sequence AGTGCTGC, the binding signal was -0.24 E-score.

Consider AACTCCAC, for which the binding signal was determined as 0.0981 E-score.

Turning to ACTCTGTG, the binding signal is 0.106 E-score.

Take CGACCCAA: the binding signal was -0.128 E-score.

Take CCATAATC: the binding signal was -0.0805 E-score.

As to AATAGGGC, the binding signal was -0.158 E-score.

For AGCCGGAC, the binding signal was found to be 0.0201 E-score.

Turning to GTCAAAAA, the binding signal is -0.0517 E-score.

With CCAGGGCG, the binding signal was 0.0347 E-score.

Take GACAATGA: the binding signal was -0.186 E-score.

CTACCTAG: the binding signal is -0.0733 E-score.

As for GCTTCCCC, the binding signal is 0.133 E-score.
